# According to the supplement of paper PMC8728848:
# The list shows a part of the results.
# Key:
# Assay in all cases: glycan array binding signal (z-score within array); higher = stronger binding
# Settings in all cases: glycan notation: IUPAC condensed, linker removed
# [1] = target: Neu5Ac(a2-6)Gal(b1-4)GlcNAc(b1-2)Man(a1-3)[Neu5Ac(a2-3)Gal(b1-4)GlcNAc(b1-2)Man(a1-6)]Man(b1-4)GlcNAc(b1-4)GlcNAc
# Procedure, shortened: (§1)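 Negative Z-scores can be read as non-binding. The Z-score is calculated within each array and then averaged across arrays of one protein sequence at different concentrations or buffers and across linkers. Arrays, 3228 in all, were curated from the Consortium for Functional Glycomics database and kept only where the protein sequence was available.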
# [2] = target: Neu5Ac(a2-6)Gal(b1-4)GlcNAc(b1-2)Man(a1-3)[Neu5Ac(a2-6)Gal(b1-4)GlcNAc(b1-2)Man(a1-6)]Man(b1-4)GlcNAc(b1-4)GlcNAc
# Procedure, shortened: as §1
# [3] = target: Neu5Ac(a2-6)Gal(b1-4)GlcNAc(b1-2)Man(a1-3)[Neu5Ac(a2-6)Gal(b1-4)GlcNAc(b1-2)Man(a1-6)]Man(b1-4)GlcNAc(b1-4)[Fuc(a1-6)]GlcNAc
# Procedure, shortened: as §1
# [4] = target: Neu5Ac(a2-6)Gal(b1-4)GlcNAc(b1-2)Man(a1-6)Man(b1-4)GlcNAc(b1-4)GlcNAc
# Procedure, shortened: as §1
# [5] = target: Neu5Ac(a2-6)Gal(b1-4)GlcNAc(b1-2)Man(a1-6)[Gal(b1-4)GlcNAc(b1-2)Man(a1-3)]Man(b1-4)GlcNAc(b1-4)GlcNAc
# Procedure, shortened: as §1
# [6] = target: Neu5Ac(a2-6)Gal(b1-4)GlcNAc(b1-2)Man(a1-6)[GlcNAc(b1-2)Man(a1-3)]Man(b1-4)GlcNAc(b1-4)GlcNAc
# Procedure, shortened: as §1
# [7] = target: Neu5Ac(a2-6)Gal(b1-4)GlcNAc(b1-2)Man(a1-6)[Man(a1-3)]Man(b1-4)GlcNAc(b1-4)GlcNAc
# Procedure, shortened: as §1
# [8] = target: Neu5Ac(a2-6)Gal(b1-4)GlcNAc(b1-2)[Neu5Ac(a2-6)Gal(b1-4)GlcNAc(b1-4)]Man(a1-3)[GlcNAc(b1-4)][Neu5Ac(a2-6)Gal(b1-4)GlcNAc(b1-2)[Neu5Ac(a2-6)Gal(b1-4)GlcNAc(b1-6)]Man(a1-6)]Man(b1-4)GlcNAc(b1-4)GlcNAc
# Procedure, shortened: as §1
# [9] = target: Neu5Ac(a2-6)Gal(b1-4)GlcNAc(b1-2)[Neu5Ac(a2-6)Gal(b1-4)GlcNAc(b1-4)]Man(a1-3)[GlcNAc(b1-4)][Neu5Ac(a2-6)Gal(b1-4)GlcNAc(b1-4)Man(a1-6)]Man(b1-4)GlcNAc(b1-4)GlcNAc
# Procedure, shortened: as §1
# [10] = target: Neu5Ac(a2-6)Gal(b1-4)GlcNAc(b1-2)[Neu5Ac(a2-6)Gal(b1-4)GlcNAc(b1-6)]Man(a1-6)[Neu5Ac(a2-6)Gal(b1-4)GlcNAc(b1-2)Man(a1-3)][GlcNAc(b1-4)]Man(b1-4)GlcNAc(b1-4)GlcNAc
# Procedure, shortened: as §1
# [11] = target: Neu5Ac(a2-6)Gal(b1-4)GlcNAc(b1-3)Gal(b1-3)GlcNAc
# Procedure, shortened: as §1
# [12] = target: Neu5Ac(a2-6)Gal(b1-4)GlcNAc(b1-3)Gal(b1-4)GlcNAc
# Procedure, shortened: as §1
# [13] = target: Neu5Ac(a2-6)Gal(b1-4)GlcNAc(b1-3)Gal(b1-4)GlcNAc(b1-2)Man(a1-3)[Neu5Ac(a2-6)Gal(b1-4)GlcNAc(b1-3)Gal(b1-4)GlcNAc(b1-2)Man(a1-6)]GalNAc
# Procedure, shortened: as §1
# [14] = target: Neu5Ac(a2-6)Gal(b1-4)GlcNAc(b1-3)Gal(b1-4)GlcNAc(b1-3)Gal(b1-4)GlcNAc
# Procedure, shortened: as §1
# [15] = target: Neu5Ac(a2-6)Gal(b1-4)GlcNAc(b1-3)Gal(b1-4)GlcNAc(b1-3)Gal(b1-4)GlcNAc(b1-2)Man(a1-3)[Neu5Ac(a2-6)Gal(b1-4)GlcNAc(b1-3)Gal(b1-4)GlcNAc(b1-3)Gal(b1-4)GlcNAc(b1-2)Man(a1-6)]GalNAc
# Procedure, shortened: as §1
# [16] = target: Neu5Ac(a2-6)Gal(b1-4)GlcNAc(b1-3)Gal(b1-4)GlcNAc(b1-3)GalNAc
# Procedure, shortened: as §1
# [17] = target: Neu5Ac(a2-6)Gal(b1-4)GlcNAc(b1-3)Gal(b1-4)GlcNAc(b1-3)[Neu5Ac(a2-6)Gal(b1-4)GlcNAc(b1-3)Gal(b1-4)GlcNAc(b1-6)]GalNAc
# Procedure, shortened: as §1
# [18] = target: Neu5Ac(a2-6)Gal(b1-4)GlcNAc(b1-3)Gal(b1-4)GlcNAc(b1-6)[Gal(b1-3)]GalNAc
# Procedure, shortened: as §1
# [19] = target: Neu5Ac(a2-6)Gal(b1-4)GlcNAc(b1-3)Gal(b1-4)[Fuc(a1-3)]GlcNAc(b1-3)Gal(b1-4)[Fuc(a1-3)]GlcNAc
# Procedure, shortened: as §1
# [20] = target: Neu5Ac(a2-6)Gal(b1-4)GlcNAc(b1-3)GalNAc
# Procedure, shortened: as §1
# [21] = target: Neu5Ac(a2-6)Gal(b1-4)GlcNAc(b1-3)[Neu5Ac(a2-6)Gal(b1-4)GlcNAc(b1-6)]GalNAc
# Procedure, shortened: as §1
# [22] = target: Neu5Ac(a2-6)Gal(b1-4)GlcNAc(b1-6)GalNAc
# Procedure, shortened: as §1
# [23] = target: Neu5Ac(a2-6)Gal(b1-4)GlcNAc(b1-6)[Gal(b1-3)GlcNAc(b1-3)]Gal(b1-4)Glc
# Procedure, shortened: as §1
# [24] = target: Neu5Ac(a2-6)Gal(b1-4)GlcNAc(b1-6)[Gal(b1-3)]GalNAc
# Procedure, shortened: as §1
# [25] = target: Neu5Ac(a2-6)Gal(b1-4)GlcNAc6S
# Procedure, shortened: as §1
# Neu5Ac(a2-6)GalNAc = target: Neu5Ac(a2-6)GalNAc
# Procedure, shortened: as §1
# [26] = target: Neu5Ac(a2-6)GalNAc(b1-4)GlcNAc
# Procedure, shortened: as §1
# [27] = target: Neu5Ac(a2-6)GalNAc(b1-4)GlcNAc6S
# Procedure, shortened: as §1
# [28] = target: Neu5Ac(a2-6)GlcNAc(b1-4)GlcNAc
# Procedure, shortened: as §1
# [29] = target: Neu5Ac(a2-6)GlcNAc(b1-4)GlcNAc(b1-4)GlcNAc
# Procedure, shortened: as §1
binder,measurement,setting,value
Cohesin-mDCIR (Macaca mulatta) (protein) GLDDLDAVRIKVDTVNAKPGDTVRIPVRFSGIPSKGIANCDFVYSYDPNVLEIIEIEPGDIIVDPNPDKSFDTAVYPDRKIIVFLFAEDSGTGAYAITKDGVFATIVAKVKEGAPNGLSVIKFVEVGGFANNDLVEQKTQFFDGGVNVGDTTEPATPTTPVTTPTTTDDLDAASFQKYSQLLEKMTTKDLVHTTLECVKKNMTTEETAWSCCPKNWKPFSSNCYFISTESASWQKSEKDCARMEAHLLVINTREEQDFIFQNLQEESAYFVGLSDPEGQRHWQWVDRTPYNESSTFWHPHEPSDPDERCVVLNFRKTPKRWGWNDVHCIVHQRSVCEMMKIHLHHHHHH,glycan array binding signal (z-score),[1],-0.217
same,glycan array binding signal (z-score),[2],-0.416
same,glycan array binding signal (z-score),[3],-0.304
same,glycan array binding signal (z-score),[4],-0.316
same,glycan array binding signal (z-score),[5],-0.372
same,glycan array binding signal (z-score),[6],-0.357
same,glycan array binding signal (z-score),[7],-0.46
same,glycan array binding signal (z-score),[8],0.14
same,glycan array binding signal (z-score),[9],-0.257
same,glycan array binding signal (z-score),[10],-0.404
same,glycan array binding signal (z-score),[11],-0.172
same,glycan array binding signal (z-score),[12],-0.426
same,glycan array binding signal (z-score),[13],-0.045
same,glycan array binding signal (z-score),[14],-0.397
same,glycan array binding signal (z-score),[15],0.257
same,glycan array binding signal (z-score),[16],-0.438
same,glycan array binding signal (z-score),[17],-0.316
same,glycan array binding signal (z-score),[18],-0.414
same,glycan array binding signal (z-score),[19],-0.434
same,glycan array binding signal (z-score),[20],-0.128
same,glycan array binding signal (z-score),[21],-0.389
same,glycan array binding signal (z-score),[22],-0.436
same,glycan array binding signal (z-score),[23],-0.461
same,glycan array binding signal (z-score),[24],-0.399
same,glycan array binding signal (z-score),[25],0.045
same,glycan array binding signal (z-score),Neu5Ac(a2-6)GalNAc,1.4
same,glycan array binding signal (z-score),[26],-0.2
same,glycan array binding signal (z-score),[27],-0.38
same,glycan array binding signal (z-score),[28],-0.413
same,glycan array binding signal (z-score),[29],-0.455
